Reference: PMC4336329 (PLoS ONE, 2015)
Among all 310,000 compounds or so, about 2,200 (0.71%) showed an effect of 50% or more. The effect is printed as a negative number. The list shows a part of the results.

These molecules were tested against human ether-à-go-go-related gene (hERG) potassium channel (human, UniProt Q12809) (assay: primary screen, population patch clamp on CHO cells stably expressing hERG).
Sequence of human ether-à-go-go-related gene (hERG) potassium channel (Q12809 whole entry, looked up): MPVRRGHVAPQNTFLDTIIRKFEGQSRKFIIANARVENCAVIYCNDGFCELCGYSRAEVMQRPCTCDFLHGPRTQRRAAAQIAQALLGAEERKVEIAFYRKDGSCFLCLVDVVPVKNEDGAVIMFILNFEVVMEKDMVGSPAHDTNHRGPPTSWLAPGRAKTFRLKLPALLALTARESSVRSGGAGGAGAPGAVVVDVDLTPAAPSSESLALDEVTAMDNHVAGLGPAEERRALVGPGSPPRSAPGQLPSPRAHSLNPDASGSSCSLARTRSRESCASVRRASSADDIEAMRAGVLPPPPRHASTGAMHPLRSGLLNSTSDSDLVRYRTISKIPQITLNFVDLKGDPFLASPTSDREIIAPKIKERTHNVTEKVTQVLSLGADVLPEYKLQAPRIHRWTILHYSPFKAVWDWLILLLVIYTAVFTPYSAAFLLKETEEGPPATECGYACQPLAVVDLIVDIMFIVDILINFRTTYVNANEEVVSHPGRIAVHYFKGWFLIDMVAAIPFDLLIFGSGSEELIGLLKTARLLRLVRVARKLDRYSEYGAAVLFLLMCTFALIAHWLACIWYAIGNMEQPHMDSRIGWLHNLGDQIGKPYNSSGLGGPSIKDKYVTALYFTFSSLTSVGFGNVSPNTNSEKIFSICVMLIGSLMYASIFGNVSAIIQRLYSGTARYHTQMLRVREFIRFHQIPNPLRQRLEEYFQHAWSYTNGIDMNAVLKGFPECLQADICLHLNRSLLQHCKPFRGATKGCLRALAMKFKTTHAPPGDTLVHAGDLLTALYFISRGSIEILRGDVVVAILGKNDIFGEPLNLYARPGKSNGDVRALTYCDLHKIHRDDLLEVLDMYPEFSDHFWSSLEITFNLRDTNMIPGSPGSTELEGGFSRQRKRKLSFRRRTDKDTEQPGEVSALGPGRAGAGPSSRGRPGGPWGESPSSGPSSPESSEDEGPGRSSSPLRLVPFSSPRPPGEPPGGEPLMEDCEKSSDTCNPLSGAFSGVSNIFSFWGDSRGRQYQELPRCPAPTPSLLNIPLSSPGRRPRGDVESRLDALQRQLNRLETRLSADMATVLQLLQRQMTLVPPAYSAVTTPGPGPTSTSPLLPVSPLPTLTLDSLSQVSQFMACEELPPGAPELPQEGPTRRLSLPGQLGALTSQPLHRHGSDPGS

| SMILES | hERG current change (%, negative = inhibition) at 1uM [%] |
| --- | --- |
| Cc1ccc(Cn2c(=O)c3ccccc3n3nc(C)cc23)cc1 | 1.62 |
| CCCc1nc2ccccc2c(=O)n1-c1cccc(OC)c1 | 5.11 |
| CCc1nnc(NS(=O)(=O)c2ccc(NC(=O)COc3ccc4ccccc4c3)cc2)s1 | 9.24 |
| Cc1ccc(NC(=O)C2CCCC2)cc1Cl | 5.32 |
| O=C(N/N=C/c1ccc(OCCCF)cc1)c1ccc(C(F)(F)F)cc1 | 11.7 |
| COc1ccc(-c2cc(-c3nnc(COC(=O)c4ccncc4)o3)c3ccccc3n2)cc1OC | 9.71 |
| C=CCSc1nc2ccsc2c(=O)n1-c1ccccc1 | 10.2 |
| Brc1nc(-c2ccccc2)nc(-c2ccccc2)c1Br | 5.09 |
| CC1O[C@@H]2O[C@](O[C@H](C)CC[C@@H](C)O)(c3ccccc3)O[C@@H]2C[C@H]1O (stereo partly shown) | 9.55 |
| CCCc1nc2ccccc2c(=O)n1/N=C/c1ccc(O)c(O)c1 | -2.15 |
| CN(C)CCCn1c(=S)[nH]c2ccccc2c1=O | 5.62 |
| O=S(=O)(c1ccc(Br)cc1)N1CCN(c2ccccc2)CC1 | 6.77 |
| COc1ccc(NCC(=O)N/N=C/C(C)c2ccccc2)cc1 (stereo not shown) | 4.77 |
| CCOC(=O)N1CCC(NC(=O)CNS(=O)(=O)c2ccc(Br)s2)CC1 | -4.59 |
| CCS(=O)(=O)NCC(c1cccnc1)N1CCN(c2ccc(F)cc2)CC1 (stereo not shown) | 7.78 |
| Cc1cc(-c2cc(-c3ccc(Cl)cc3)on2)nc(NCC2CC2)n1 | 12 |
| COc1ccc(C(=O)CC(=O)C(=O)Nc2ccc(OC)c(Cl)c2)cc1 | 10.7 |
| CCOc1ccc2oc(C(=O)OC(C(=O)NC(N)=O)C(C)C)c(C)c2c1 (stereo not shown) | 4.76 |
| CCCCc1ccc(NC(=O)CN2NS(=O)(=O)c3ccccc3C2=O)cc1 | 14.4 |
| Cc1ccc(OCCCCNC2CCCC(C)C2C)c(C)c1.O=C(O)C(=O)O (stereo not shown) | 9.73 |
| CCOC(=O)C1(Cc2ccccc2)CCCN(Cc2ccccn2)C1 (stereo not shown) | 1.88 |
| CCN1CCN(c2cc(C)c3cc(NC(=O)CCC(=O)N4CCN(c5ccccc5OC)CC4)ccc3n2)CC1 | 22.4 |

| SMILES | hERG current change (%, negative = inhibition) at 1uM [%] |
| --- | --- |
| Nc1nnc(SCC(=O)c2ccco2)s1 | 1.58 |
| Cl.N[C@@H](Cc1ccccc1)c1nnc(SCc2ccccc2F)o1 | 17 |
| CCOC(=O)c1nnn(-c2nonc2N)c1CSc1ccc(C)cc1 | 5.3 |
| CN1CCN(C(=O)c2cnn(-c3ccccc3)c2NC(=O)c2ccc([N+](=O)[O-])cc2)CC1 | -42.2 |
| O=c1c2ccccc2nc2n1CCCS2 | 8.55 |
| Cc1ccc(-c2nnc(/C=C/c3ccccc3)o2)cc1 | -3.81 |
| COC(=O)c1c(NC(=O)CSc2nccn2C)sc(C)c1C | 0.619 |
| O=C1C=C(c2ccc(F)nc2)C[C@@H](c2ccc3c(c2)OCO3)C1 | 2.34 |
| CC(=O)c1ccc(S(=O)(=O)NCCC(=O)NCCc2c[nH]c3ccccc23)cc1 | 2.14 |
| Nc1ncc([N+](=O)[O-])c(N2CCCCCC2)n1 | 17.7 |
| CSc1ccc(CN(C)CC(=O)NCCc2ccccc2)cc1 | 6.72 |
| Cc1cc(C)cc(NC(=O)CCn2ccnc2)c1 | 10.5 |
| CC1=NN(C(N)=S)C(=O)C1N=Nc1cccc([N+](=O)[O-])c1 (stereo not shown) | 17 |
| CCCCCn1c(=O)c(C(=O)NCc2ccccc2)c(O)c2ccccc21 | 17.3 |
| CCOC(=O)c1c(-c2cccs2)csc1NC(=O)C(C)(C)C | 8.8 |
| CC1(C(=O)NC(=S)NNC(=O)c2ccncc2)CCCCC1 | 9.5 |
| Cc1cccc(C(=O)Nc2ccc3c(c2)ncn3C)c1 | 15 |
| Cc1ccccc1-n1nc2c(c1NC(=O)c1cc3ccccc3oc1=O)CS(=O)(=O)C2 | -7.36 |
| CC(=O)N1CC(C)Sc2ccc(S(=O)(=O)NCc3ccccc3Cl)cc21 (stereo not shown) | 11.8 |
| CC(C)(C)c1cccc(/C=N/O)c1O | 10.1 |
| C[C@@H]1CC[C@@]2(OC1)O[C@H]1C[C@H]3[C@@H]4CC=C5C[C@@H](O)[C@H](O)C[C@]5(C)C4CC[C@]3(C)[C@H]1[C@@H]2C (stereo partly shown) | 19.9 |
| O=C(CNC(=O)c1ccncc1)N/N=C/c1ccc(O)cc1O | 11 |

| SMILES | hERG current change (%, negative = inhibition) at 1uM [%] |
| --- | --- |
| CCOC(=O)c1ccc(Nc2cnc3ccccc3n2)cc1 | 3.66 |
| COc1ccc(Cl)cc1N1C(=O)/C(=C\c2sccc2C)N=C1SCC(=O)NC1CC1 | 6.01 |
| CC(OC(=O)c1snc(C(=O)NC2CCCCC2)c1N)C(=O)NC(C)(C)C (stereo not shown) | 7.55 |
| O=C(COC(=O)c1ccc(S(=O)(=O)C(F)F)cc1)Nc1ccccc1C(=O)NC1CC1 | 13.7 |
| CC1CCCCN1C(=O)CSc1nnc(-c2ccc(Cl)s2)o1 (stereo not shown) | -0.374 |
| O=c1[nH]c(NCCCO)nc2c1C1(CCCC1)Cc1ccccc1-2 | 10.5 |
| C=C1CC[C@H](O)C/C1=C/C=C1\CCC[C@]2(C)[C@@H]([C@H](C)/C=C/[C@H](C)C(C)C)CC[C@@H]12 | 5.67 |
| COc1ccc(NCc2nnc(SCC(=O)Nc3cccc(C)c3)o2)cc1 | 12.9 |
| Cc1nnc(NC(=O)C2CCCN2S(=O)(=O)c2ccc(Cl)cc2)s1 (stereo not shown) | -9.52 |
| Cc1ccc(-c2ccccc2NC(=O)C2C3C=CC(C3)C2C(=O)O)o1 (stereo not shown) | 20 |
| O=S(=O)(CCSc1nc2ccccc2o1)c1nc2ccccc2s1 | 2.25 |
| C=CCNC(=O)COc1c(C)ccc(C)c1C | 2.35 |
| O=C(COC(=O)CCCN=C1NS(=O)(=O)c2ccccc21)NC(=O)NC1CCCC1 | 15.5 |
| COc1ccccc1NS(=O)(=O)c1cccc(C(=O)NCC(c2ccco2)N2CCCCC2)c1 (stereo not shown) | -0.284 |
| Cc1cc(NC(=O)Nc2cc(C)nn2-c2ccccc2)n(-c2ccccc2)n1 | 2.23 |
| CCC(C)(C)n1nnnc1C(c1cc2cccc(C)c2[nH]c1=O)N1CCN(C(=O)c2ccco2)CC1 (stereo not shown) | 2.94 |
| N#CC1=C(N)C2=CCCC[C@H]2[C@H](c2cccc(F)c2)C1(C#N)C#N | 13 |
| COc1ccc(NC(=O)CCNC(=O)Cn2cnc3ccccc3c2=O)c(OC)c1 | 4.76 |
| CC(C)C[C@H](NC(=O)C1CCN(S(=O)(=O)c2ccccc2)CC1)C(=O)NCc1cccnc1 | 1.76 |
| CC1CCc2c(C(=O)NCc3ccccn3)csc2C1 (stereo not shown) | 7.33 |
| C=CCn1c(=NC(=O)c2cc(Cl)sc2Cl)sc2cc(S(N)(=O)=O)ccc21 | 5.06 |
| COc1ccc(C2(C(=O)Nc3cc(C)on3)CCOCC2)cc1 | -6.57 |

| SMILES | hERG current change (%, negative = inhibition) at 1uM [%] |
| --- | --- |
| Cc1ccc2c(c1)c1c3n2CCN(CC#N)C3CCC1 (stereo not shown) | 5.7 |
| Cc1ccccc1CSc1nsc(N)n1 | 16 |
| Cc1cc(S(=O)(=O)N2CCCC(N(C)CCc3ccccn3)C2)c(C)cc1Cl (stereo not shown) | -43.7 |
| COc1ccc(CCNC(=O)CCCCCN2C(=O)c3ccccc3C2=O)cc1 | 6.01 |
| COC(=O)c1cc(NC(=O)c2c(-c3ccccc3)noc2C)ccc1N1CCOCC1 | 4.11 |
| COc1ccc(CCNC(=O)/C(C#N)=C/c2ccc(OCC(=O)NCC3CCCO3)cc2)cc1OC (stereo not shown) | 18.5 |
| O=C(CCN1C(=O)/C(=C\c2ccccc2)SC1=S)Nc1ccc(C(=O)O)cc1 | 10.7 |
| Cc1ccc(NC(=O)N2CCCC2C(=O)Nc2nnc(C(C)C)s2)cc1 (stereo not shown) | 16 |
| COc1ccc(S(=O)(=O)N2CCOCC2)cc1NC(=O)CN1CCN(C)CC1 | 11.4 |
| COCCn1nnnc1CN1CCC(Cc2ccccc2)CC1.Cl | 7.55 |
| CCc1ccc(C(=O)CN2C(=O)NC(C)(CCc3ccccc3)C2=O)cc1 (stereo not shown) | 2.74 |
| C/C(=N/NC(=O)C1COc2ccccc2O1)c1ccc(Br)s1 (stereo not shown) | 13.8 |
| CCOC(=O)c1cncc(C#CCOC(=O)Nc2ccc(OC(F)(F)F)cc2)c1 | 13.6 |
| CCN1CCCC(OC(=O)c2cc(-c3ccccc3Cl)nc3ccccc23)C1.Cl (stereo not shown) | -7.48 |
| Cn1c(NC(=O)c2ccc(Br)o2)cc(=O)n(C)c1=O | 6.16 |
| CCC(C)NC(=O)C1(O)c2cc(Br)ccc2NC(=O)N1c1cccc(OC)c1 (stereo not shown) | 13 |
| O=C(NNC(=O)c1cccs1)c1ccc(Cl)nc1 | 2.47 |
| O=C(COC(=O)/C=C/c1ccc2c(c1)OCO2)NC1CC1 | 6.45 |
| COC(=O)C(C(=O)OC)c1ncc(C(F)(F)F)cc1Cl | 20.9 |
| O=C(Nc1nnc(-c2cc(Cl)ccc2Cl)o1)C1=COCCO1 | 10.3 |
| CC(C)Cc1nn2c(=O)cc(COc3ccc(NC(=O)c4ccco4)cc3)nc2s1 | 4.41 |
| Cc1csc(NC(=O)c2nc(-c3ccccc3)n(-c3ccccc3)n2)n1 | -45.2 |
